According to US7166475B2, “Compositions and methods for monitoring the modification state of a pair of polypeptides” (Cyclacel Ltd., priority 1999, dated 2007):

What was measured:
caspase 2 = molecular target: T1, caspase 2 (Homo sapiens, UniProt P42575); assay: Caspase 2 cleavage of immobilised peptides, FRET; type: biochemical; settings: procedure of Example 10, caspase 2 in place of thrombin
T1 sequence (P42575 170-325 limits assumed): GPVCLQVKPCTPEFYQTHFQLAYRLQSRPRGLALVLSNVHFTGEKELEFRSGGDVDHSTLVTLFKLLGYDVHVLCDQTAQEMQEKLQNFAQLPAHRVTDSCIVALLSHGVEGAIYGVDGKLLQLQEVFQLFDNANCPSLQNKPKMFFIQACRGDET
T1 sequence (P42575 348-452 limits assumed): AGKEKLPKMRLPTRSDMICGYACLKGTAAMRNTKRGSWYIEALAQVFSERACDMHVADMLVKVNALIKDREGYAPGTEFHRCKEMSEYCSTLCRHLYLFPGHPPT

carboxypeptidase = assay: Carboxypeptidase digestion, FRET; type: biochemical
peptide D = assay: FRET of fluorescein-labelled peptides N and C with rhodamine-labelled peptide D; type: binding; settings: no peptidase
PKA = PKA (Homo sapiens, UniProt P17612); assay: Timecourse of phosphorylation by PKA (32P-ATP); type: biochemical; settings: 0.5 μM PKA, 0.2 mM ATP
Description: A timecourse of phosphorylation of these peptides by PKA is run in 50 mM histidine/HCl (pH 7.0), 5 mM MgSO4, 5 mM NaF, 0.05 mM EGTA, 120 mM kcb with 0.2 mM ATP (30.9 cpm/pmol ^32P-ATP) and 0.5 μM PKA. […] Zip4T is also phosphorylated, at a slower rate, with full phosphorylation achieved in 30 minutes in this assay. In this assay, the difference in cpm recovered between the Zip4 peptides and PL919Y is due to the difference in recovery of these peptides on P81 paper. The plateau indicates full phosphorylation.
A set of timecourses of phosphorylation is performed on Zip4S using PKA and Ca^2+/Calmodulin-dependent Protein Kinase (CaMK-II), together with positive and negative controls for CaMK-II (these controls confirm that the preparation of CaMK-II posesses the expected characteristics of that enzyme). PKA phosphorylation is performed in 50 mM histidine/HCl (pH 7.0), 5 mM MgSO4, 5 mM NaF, 0.05 mM EGTA, 120 mM kcb with 0.2 mM ATP (39.72 cpm/pmol ^32P-ATP) and 0.25 μM PKA. CaMK-II phosphorylation is performed in 50 mM histidine/HCl (pH 7.0), 5 mM MgSO4, 5 mM NaF, 120 mM kcb, 0.5 mM Ca^2+, 0.037 mg/ml calmodulin with 0.2 mM ATP (39.72 cpm/pmol ^32P-ATP) and 10% crude CaMK-II. In the Ca^2+-free experiment, Ca^2+ is replaced by 0.05 mM EGTA. […]

[1] = type: physicochemical
Description: The circular dichroism (measured in units of ellipticity) of proteins at 222 nm provides a measure of the amount of a-helix present in the structure, with a large, negative ellipticity indicting a high level of helicity. The coiled-coil has a distinctive a-helical CD spectrum with minima at 222 nm and 208 nm (O'Shea et al., 1989, Science, 243: 538–542). The CD spectra of the unmodified Zip3 and its phosphorylated form (‘Zip3P’) are determined at a sample concentration of 10 μM in 150 mM KCB, 42.2 mM K2HPO4, 7.8 mM KH2PO4, pH 7.0 at 20° C.; spectra are recorded using a 1 mm pathlength cell in a Jasco J-715 spectropolarimeter with a Jasco PTC-348W Peltier temperature control unit. Peptide concentration is determined by tyrosine absorbance at 280 nm in 6M GuHCl. […] The effipticities of Zip3 and Zip3P at 222 nm with increasing temperature are measured. The steep portion of the sigmoid curve for Zip3 indicates the unfolding of the molecule. It is clear that this leucine zipper peptide begins to unfold at around 35° C. and is completely unfolded by 70° C. […]
The circular dichroism (measured in units of ellipticity) of proteins at 222 nm provides a measure of the amount of a-helix present in the structure, with a large, negative ellipticity indicting a high level of helicity. […] In all experiments described herein, peptide concentration is determined by tyrosine absorbance at 280 nm in 6M GnHCl.

For “HHHHHHGGIAQLEQEIAQLEDENDQLEQEIAQLEQEIAKLEQE [Peptide 4]”, the “FRET result with caspase 2 compared with Example 10 (thrombin)” value (caspase 2) was “identical results”.
With “HHHHHHGGIAQLEQEIAQLEQENAQLEQEIAQL [Peptide C]” the “FRET of pair with peptide D after addition of carboxypeptidase” value (carboxypeptidase) was “abolishes FRET” and the “FRET in the presence of rhodamine-labelled peptide D” value (peptide D) was “FRET is observed”.
For “R MKQLEDQ VRRLRRK TYHLENE VACLKKL VGERAAK (RMKQLEDQVRRLRRKTYHLENEVACLKKLVGERAAK) [Zip4T]”, the “time to full phosphorylation by PKA” value (PKA) was 30 min, the “phosphorylation by PKA (substrate quality, rate)” value (PKA; compared with known substrate PL919Y) was “slower rate” and the “relative thermostability (CD)” value [1] was “more stable than was Zip4S”.
